According to PubChem BioAssay AID1240 (Sanford-Burnham Center for Chemical Genomics, 2008):
In all, about 50,000 compounds went through this assay and about 800 (1.6%) showed an effect of 50% or more. The list shows a part of the results.

These compounds were tested against Bcl-2-like protein 10 (Homo sapiens) (UniProt Q9HD36) (assay: TR3 peptide-Bcl-B binding displacers, biochemical primary FP assay, phenotype converters (AID 1240;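 further: 0% = Bcl-B with tracer peptide and DMSO and 100% = tracer peptide lacking Bcl-B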)). Details: GST-Bcl-B / FITC-TR3 peptide fluorescence polarization; stronger effect = higher value; compound at 3.75 mg/L.
UniProt Q9HD36, sequence (Q9HD36 whole entry, looked up): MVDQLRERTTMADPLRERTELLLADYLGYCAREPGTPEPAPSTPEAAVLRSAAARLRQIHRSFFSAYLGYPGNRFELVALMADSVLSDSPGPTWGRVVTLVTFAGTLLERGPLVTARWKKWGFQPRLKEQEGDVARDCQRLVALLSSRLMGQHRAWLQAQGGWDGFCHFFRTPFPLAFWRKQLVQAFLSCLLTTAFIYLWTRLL
Work on `COc1ccc(NC(=O)Nc2ccccc2C(F)(F)F)cc1` yielded a displacement of 8.4%.
`Fc1ccc(-c2noc(/C=C/c3ccccc3)n2)cc1` was tested, and the displacement was -12.2%.
`Cn1c(=O)c(-c2ccccc2N)nc2ccccc21` was tested, and the displacement was -5.4%.
In the case of `Cn1c(=O)n(C)c2cc(/C=N\NC(N)=S)ccc21`, the displacement is reported as -8.9%.
`CCOc1ccc(S(=O)(=O)N(CC(=O)Nc2cccc(C(C)=O)c2)c2ccc(C)cc2)cc1` gave a displacement of 5.3%.
For `CCN(CC)C(=O)CCc1ccccc1`, the displacement was 4.5%.
With `Cn1c(=O)cc(-c2ccccc2)c2ccccc21` the displacement was 7.4%.
Work on `COc1ccccc1C/C(N)=N/OC(=O)COc1ccc(C)cc1C` yielded a displacement of -13.4%.
For `O=[N+]([O-])c1cccc(/C=N/Nc2cc(N3CCCC3)nc(N3CCCC3)n2)c1`, the displacement was 15.1%.
With `COc1ccc(C=C2C(=O)N(C)C(=O)N(C)C2=O)c(OC)c1OC` the displacement was -10.4%.
`Cc1c(NC(=O)/C=C/c2cccc([N+](=O)[O-])c2)cccc1-c1nc2ncccc2o1` was tested, and the displacement was 74.8%.
Work on `CS(=O)(=O)c1ccc2nc(NC(=O)c3ccco3)sc2c1` yielded a displacement of 12%.
For `Cc1ccnc(NC(=O)CSc2nc3ccccc3[nH]2)c1`, the displacement was 4.2%.
Work on `CCOc1ccc2cc(S(=O)(=O)N3CCN(c4ccccc4)CC3)ccc2c1` yielded a displacement of -2.6%.
Compound `COc1ccc(OC)c(NC(=S)NC(=O)/C=C/c2ccccc2)c1` has a displacement of 13.1%.
`CN(C)c1ccc(C2N(C)c3ccccc3N2C)cc1` was tested, and the displacement was 5.5%.
For `Nc1ccc(Cl)c(-c2nc3cc(Cl)ccc3o2)c1`, the displacement was 12.6%.
In the case of `COc1cc(OC)c(OC)cc1CNCC1OCCc2ccccc21` (stereo not given), the displacement is reported as 10.6%.
`COCCNC(=O)CN(c1cc(Cl)ccc1OC)S(=O)(=O)c1ccc(C)c([N+](=O)[O-])c1` gave a displacement of 8.4%.
Work on `COc1cccc(N2C(=O)C(=O)/C(=C(\O)c3ccccc3)C2c2ccc(Br)cc2)c1` (stereo not given) yielded a displacement of 3.3%.
Work on `COc1ccccc1C1(O)CC(c2ccc(C)cc2)NC(c2ccc(C)cc2)C1C` (stereo not given) yielded a displacement of 11.7%.
For `O=C(c1ccccc1F)N1CCN(c2ccc([N+](=O)[O-])c3cccnc23)CC1`, the displacement was 10.3%.
In the case of `COC(=O)c1ccccc1-c1ccc(/C=C2\C(=O)NN(c3ccccc3)C2=O)o1`, the displacement is reported as 15.4%.
`CC(=O)Nc1ccc(S(=O)(=O)NNC(=O)c2ccccc2Cl)cc1` was tested, and the displacement was 10.4%.
For `COc1ccccc1CN1CCN(Cc2ccco2)CC1`, the displacement was -15%.
`COc1ccc(C)cc1NC(=O)c1cccnc1` was tested, and the displacement was 20.4%.
For `CN(C)c1ccc(-c2c(C#N)c(N)[nH]c(=S)c2C#N)cc1`, the displacement was 6.5%.
Work on `N#Cc1c(N)nc(SCC(=O)c2ccccc2)c(C#N)c1-c1ccc(Cl)cc1` yielded a displacement of 4%.
With `CC1N(c2ccccn2)c2ccccc2N1c1ccccn1` the displacement was -10.6%.
`CCOc1ccc(/C=C2/C(=O)NN(c3ccccc3)C2=O)cc1` was tested, and the displacement was -1.6%.
With `O=C(NC(=S)Nc1ccc(Cl)cc1)c1ccc([N+](=O)[O-])cc1` the displacement was -4.2%.
`O=[N+]([O-])c1cc2c(cc1C=Nc1cc(Cl)cc(Cl)c1)OCO2` showed a displacement of -7.8%.
With `COc1ccc([N+](=O)[O-])cc1-c1ccc(/C=C(/C#N)C(=O)Nc2cccc(Br)c2)o1` the displacement was 7.6%.
Work on `C=CCN(CC=C)C(=O)C1CC(=O)N(c2ccc(Br)cc2)C1` (stereo not given) yielded a displacement of 10.8%.
`COc1ccc(NC(=O)c2cccc(Cl)c2Cl)cc1OC` showed a displacement of -3.4%.
`O=C(Nc1ccccc1C(=O)O)c1ccc(Cl)c(Cl)c1` showed a displacement of 3.9%.
`COc1ccc(C2C3C(=O)N(c4ccc(Br)cc4)C(=O)C3N3CCCN23)cc1` (stereo not given) was tested, and the displacement was -7.7%.
`COc1cc(-c2nc3ccccn3c2/N=C/c2ccccc2)ccc1O` was tested, and the displacement was 9.8%.
Compound `O=C1/C(=C/c2ccc(Br)o2)SC(=S)N1c1cccc(C(F)(F)F)c1` has a displacement of 21.6%.
`COc1ccc(Br)cc1C(=O)Nc1ccc(NC(=O)c2ccco2)cc1` showed a displacement of -1.9%.
`CC1(C)Cc2c(sc(/N=C/N3CCCCC3)c2C#N)C(C)(C)N1` gave a displacement of -1.9%.
`O=C(O)CCCN1C(=O)C(=O)/C(=C(/O)c2ccccc2)C1c1ccc(Cl)cc1Cl` (stereo not given) was tested, and the displacement was -16.3%.
`O=C(/C=C/c1ccccc1)NCc1ccc(Cl)cc1` was tested, and the displacement was -8.7%.
`CC1=NN(c2nc(-c3ccccc3)cs2)C(=O)/C1=C\c1ccc(O)cc1` gave a displacement of -18.8%.
In the case of `O=C(O)c1ccc(CN2CCOCC2)o1`, the displacement is reported as -5.7%.
`CCOc1ccc(C(=O)Nc2cc(OC)ccc2OC)cc1Br` showed a displacement of -9%.
`COc1ccc(/C=C2/NC(=O)/C(=C/c3ccc(OC)cc3)C2=O)cc1` showed a displacement of -0.8%.
Compound `COc1ccc(OC)c(NC(=O)C2CN(S(=O)(=O)c3ccccc3)CCN2S(=O)(=O)c2ccccc2)c1` (stereo not given) has a displacement of 3.6%.
`CCOC(=O)C1=C(O)/C(=C/c2ccc(F)cc2)SC1=Nc1ccc([N+](=O)[O-])cc1` gave a displacement of 59.1%.
In the case of `Cc1ccc(C(=O)N/C(=C/c2cccs2)C(=O)NN)cc1`, the displacement is reported as -8.9%.
Compound `COc1cc2c(cc1NC(=O)c1ccc(I)cc1)oc1ccccc12` has a displacement of 11.6%.
In the case of `COc1cccc(Nc2ccc3noc4c3c2C(=O)c2ccccc2-4)c1`, the displacement is reported as -0.6%.
Compound `CCN(CC)c1ccc(/C=C2\C(=O)NC(=O)N(c3ccc(OC)cc3)C2=O)c(OC)c1` has a displacement of 10%.
Work on `O=C1c2ccccc2NC(c2ccccc2O)N1Cc1ccco1` (stereo not given) yielded a displacement of 14.5%.
In the case of `COc1ccc(/C=C2\SC(N3CCC(C)CC3)=NC2=O)c(OC)c1`, the displacement is reported as -10.3%.
`CC(=O)c1cccc(NC(=O)/C=C/c2ccccc2)c1` showed a displacement of -2.2%.
Compound `O=S(=O)(NNc1ccccc1)c1ccc(Cl)cc1` has a displacement of -4.4%.
Work on `Cc1cccc(OCCn2c(N)nc3ccccc32)c1` yielded a displacement of -10.3%.
`CN1CCN(S(=O)(=O)c2ccc(Oc3ccc([N+](=O)[O-])cc3)cc2)CC1` was tested, and the displacement was 11.8%.
With `O=C(Nc1ccc(Cl)cc1)Nc1nnc(-c2ccccc2Br)s1` the displacement was 12.6%.
For `COc1cccc(C2C(C(=O)OCCc3ccccc3)=C(C)NC3=C2C(=O)CCC3)c1` (stereo not given), the displacement was -6.2%.
Work on `CCOc1cc(/C=C2\SC(=S)NC2=O)cc(Br)c1OC(C)=O` yielded a displacement of -25.5%.
In the case of `Cc1cc(Cl)ccc1OCC(O)CN1CCN(C)CC1` (stereo not given), the displacement is reported as -0.3%.
`COc1ccc(N2C(=O)CC(Cc3ccccc3OC)C2=O)cc1` (stereo not given) was tested, and the displacement was 9.6%.
Compound `NC(=O)c1ccccc1NC(=O)/C(=C/c1ccccc1)c1ccccc1` has a displacement of 10.1%.
With `CC(=O)Oc1ccc(C2C(C(=O)OCCOc3ccccc3)=C(C)NC3=C2C(=O)CCC3)cc1` (stereo not given) the displacement was -2.6%.
Work on `CSCCC(NC(=O)c1cc(COc2ccc(-c3ccccc3)cc2)c(C)o1)C(=O)O` (stereo not given) yielded a displacement of 5.6%.
Work on `CCOc1ccc(NC2=NS(=O)(=O)c3ccccc32)cc1` yielded a displacement of -9%.
`Cc1ccc(C(=O)N/C(=C\c2cccs2)C(=O)NCc2cccnc2)cc1` showed a displacement of -6%.
For `Cc1ccc(S(=O)(=O)N2CCN(C3CC4CCC3C4)CC2)cc1` (stereo not given), the displacement was 16.2%.
